Measurements from the supplement of paper PMC10126150.
Values marked as one replicate rest on one cluster of the flow cell; about a third of the high ones do not repeat.
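Also: ATP exposure 15 min at 22 °C before imaging.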

Each sequence was assayed on ATP (assay: switch fluorescence ratio, 500 uM ATP over buffer (Cy3 cluster intensity, sum of 5 cycles each) (fold (ratio)); higher = stronger signal-on switching upon ATP binding; sequences stand for … in TCGTCGGCAGCGTCAGATGTGTATAAGAGACAGTTTTTTTTTTTTTTTTTTTTTTTTT…TC). Conditions: aptamer strand: ATP DNA aptamer (quencher-CACCTGGGGGAGTATTGCGGAGGAAGG + anchor), 100 nM annealed; ATP concentration: 500 uM; one replicate.
Procedure, shortened: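 Per cluster, summed Cy3 intensity from the target cycles was divided by that from the buffer cycles to give the fluorescence ratio, then averaged per switch-domain sequence. Clusters outside 100-1000 RFU were excluded. The Cy3-labelled switching-strand clusters, on a modified Illumina MiSeq flow-cell, were annealed to 100 nM quencher-labelled ATP aptamer and imaged in selection buffer, then after 15 min with 500 uM ATP at 22 °C, for five cycles with NaOH stripping and re-annealing between them.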
CGTGGGAAAC showed a switch fluorescence ratio of 1.
Sequence CGTGGGAGCA has a switch fluorescence ratio of 0.964.
CGTGGGAGCC was tested, and the switch fluorescence ratio was 0.975.
Sequence CGTGGGCGGA has a switch fluorescence ratio of 0.998.
Work on CGTGGGGATT yielded a switch fluorescence ratio of 1.06.
CGTGGGGTCT was tested, and the switch fluorescence ratio was 0.968.
With CGTGGTGTCA the switch fluorescence ratio was 1.03.
For CGTGGTTAGG, the switch fluorescence ratio was 1.
Sequence CGTGGTTCTG has a switch fluorescence ratio of 1.
With CGTGTATGAC the switch fluorescence ratio was 1.03.
In the case of CGTGTTAGAT, the switch fluorescence ratio is reported as 0.977.
CGTGTTCGCC gave a switch fluorescence ratio of 0.978.
For CGTGTTTGGT, the switch fluorescence ratio was 0.961.
In the case of CGTTAAAAAT, the switch fluorescence ratio is reported as 0.996.
CGTTAAAGGT gave a switch fluorescence ratio of 1.03.
CGTTACACGG was tested, and the switch fluorescence ratio was 1.01.
In the case of CGTTACAGCA, the switch fluorescence ratio is reported as 1.04.
For CGTTAGACGT, the switch fluorescence ratio was 1.03.
CGTTATAATC showed a switch fluorescence ratio of 1.09.
In the case of CGTTATCAGC, the switch fluorescence ratio is reported as 0.951.
In the case of CGTTATGGAG, the switch fluorescence ratio is reported as 1.
In the case of CGTTATGTGT, the switch fluorescence ratio is reported as 1.03.
Work on CGTTCACCGT yielded a switch fluorescence ratio of 1.01.
Sequence CGTTCGACGG has a switch fluorescence ratio of 0.971.
CGTTCGTAGC showed a switch fluorescence ratio of 1.13.
CGTTCTACTT showed a switch fluorescence ratio of 1.01.
Work on CGTTCTAGGC yielded a switch fluorescence ratio of 0.982.
CGTTCTTCCG gave a switch fluorescence ratio of 1.23.
In the case of CGTTGAATTG, the switch fluorescence ratio is reported as 0.927.
CGTTGATAA showed a switch fluorescence ratio of 1.02.
For CGTTGCAGAG, the switch fluorescence ratio was 0.986.
Work on CGTTGGCCT yielded a switch fluorescence ratio of 0.991.
In the case of CGTTGGGCCA, the switch fluorescence ratio is reported as 0.899.
CGTTGGGCTA gave a switch fluorescence ratio of 1.09.
CGTTGGTAAT showed a switch fluorescence ratio of 3.89.
CGTTGGTGTA showed a switch fluorescence ratio of 0.964.
CGTTGTATTC gave a switch fluorescence ratio of 0.912.
CGTTGTCAGT showed a switch fluorescence ratio of 0.986.
CGTTGTCTTT gave a switch fluorescence ratio of 1.07.
In the case of CGTTGTGATG, the switch fluorescence ratio is reported as 0.967.
For CGTTGTGCGC, the switch fluorescence ratio was 1.
With CGTTGTTCTT the switch fluorescence ratio was 0.987.
In the case of CGTTTACAGC, the switch fluorescence ratio is reported as 0.994.
Work on CGTTTCACAA yielded a switch fluorescence ratio of 1.03.
CGTTTCAGTT showed a switch fluorescence ratio of 0.97.
CGTTTCGGCG was tested, and the switch fluorescence ratio was 0.943.
For CGTTTCTACG, the switch fluorescence ratio was 0.974.
CGTTTGACA was tested, and the switch fluorescence ratio was 1.
Sequence CGTTTGAGAT has a switch fluorescence ratio of 1.
Work on CGTTTGTCCA yielded a switch fluorescence ratio of 0.953.
Work on CGTTTTAGTG yielded a switch fluorescence ratio of 0.962.
CTAAAACAT was tested, and the switch fluorescence ratio was 1.04.
For CTAAACGTCC, the switch fluorescence ratio was 1.21.
Sequence CTAAAGGGCG has a switch fluorescence ratio of 1.03.
CTAAATTAAC showed a switch fluorescence ratio of 1.02.
Sequence CTAACAATTG has a switch fluorescence ratio of 0.99.
For CTAACGTAGC, the switch fluorescence ratio was 1.11.
With CTAACTGTG the switch fluorescence ratio was 0.93.
In the case of CTAAGAAGTA, the switch fluorescence ratio is reported as 0.99.
CTAAGCCAAG was tested, and the switch fluorescence ratio was 0.991.
Work on CTAAGCCGGG yielded a switch fluorescence ratio of 1.01.
Work on CTAAGCCGTC yielded a switch fluorescence ratio of 0.999.
In the case of CTAAGGCCGG, the switch fluorescence ratio is reported as 0.974.
Work on CTAAGGGATG yielded a switch fluorescence ratio of 1.01.
CTAAGGGTCC gave a switch fluorescence ratio of 0.934.
Sequence CTAAGTACGT has a switch fluorescence ratio of 1.19.
CTAAGTAGCT gave a switch fluorescence ratio of 1.
CTAAGTGGCG showed a switch fluorescence ratio of 0.993.
In the case of CTAAGTTCGG, the switch fluorescence ratio is reported as 0.981.
CTAATACGAT was tested, and the switch fluorescence ratio was 1.05.
With CTAATATATT the switch fluorescence ratio was 1.02.
CTAATATTTG gave a switch fluorescence ratio of 1.03.
In the case of CTAATCAAGC, the switch fluorescence ratio is reported as 0.996.
In the case of CTAATGAAGA, the switch fluorescence ratio is reported as 0.978.
Work on CTAATGCGCC yielded a switch fluorescence ratio of 1.01.
CTAATGGTAC showed a switch fluorescence ratio of 1.21.
Work on CTAATTACAT yielded a switch fluorescence ratio of 0.951.
Work on CTAATTAGAG yielded a switch fluorescence ratio of 1.02.
CTAATTTTAG gave a switch fluorescence ratio of 0.988.
CTACAGTGCT showed a switch fluorescence ratio of 1.03.
With CTACATCGA the switch fluorescence ratio was 0.988.
For CTACCAGGCG, the switch fluorescence ratio was 1.64.
With CTACCATTGT the switch fluorescence ratio was 1.02.
CTACCCGGT was tested, and the switch fluorescence ratio was 1.07.
Work on CTACCTGAGC yielded a switch fluorescence ratio of 1.04.
For CTACCTGCTC, the switch fluorescence ratio was 1.23.
CTACGTGGCT gave a switch fluorescence ratio of 1.04.
CTACTATTGT showed a switch fluorescence ratio of 0.979.
With CTACTCATAG the switch fluorescence ratio was 1.11.
CTACTCGGAC gave a switch fluorescence ratio of 1.16.
With CTACTTTTAG the switch fluorescence ratio was 1.08.
CTAGAACAGC was tested, and the switch fluorescence ratio was 0.998.
CTAGAAGGTG gave a switch fluorescence ratio of 1.71.
CTAGACAATT gave a switch fluorescence ratio of 0.986.
For CTAGAGAGGC, the switch fluorescence ratio was 1.01.
Work on CTAGAGCACA yielded a switch fluorescence ratio of 2.03.
Work on CTAGAGCCGG yielded a switch fluorescence ratio of 0.987.
In the case of CTAGCAGACT, the switch fluorescence ratio is reported as 1.17.
CTAGCCGTTT was tested, and the switch fluorescence ratio was 0.957.
CTAGCCTAGC was tested, and the switch fluorescence ratio was 1.02.
For CTAGCTAATG, the switch fluorescence ratio was 0.981.
CTAGCTCTAA was tested, and the switch fluorescence ratio was 0.979.
For CTAGGACTTT, the switch fluorescence ratio was 0.994.
Work on CTAGGATTTA yielded a switch fluorescence ratio of 0.991.
CTAGGGCACT gave a switch fluorescence ratio of 1.02.
CTAGGGTATG showed a switch fluorescence ratio of 1.
CTAGGGTCGA was tested, and the switch fluorescence ratio was 1.
CTAGGTCGAT gave a switch fluorescence ratio of 1.
CTAGTAAATG was tested, and the switch fluorescence ratio was 0.991.
With CTAGTAGGTA the switch fluorescence ratio was 0.971.
For CTAGTCTTAC, the switch fluorescence ratio was 1.12.
CTAGTGCAGG was tested, and the switch fluorescence ratio was 1.
In the case of CTAGTGTGAA, the switch fluorescence ratio is reported as 1.02.
CTAGTTATCG was tested, and the switch fluorescence ratio was 0.983.
CTAGTTCTGC gave a switch fluorescence ratio of 1.07.
Sequence CTAGTTGGG has a switch fluorescence ratio of 1.01.
With CTATAACTGA the switch fluorescence ratio was 0.948.
For CTATAATCAC, the switch fluorescence ratio was 1.05.
CTATAGCCAG showed a switch fluorescence ratio of 0.988.
In the case of CTATAGCCTG, the switch fluorescence ratio is reported as 0.975.
With CTATATGAGC the switch fluorescence ratio was 0.991.
In the case of CTATATGCCA, the switch fluorescence ratio is reported as 0.981.
With CTATATTTTG the switch fluorescence ratio was 1.01.
CTATCAGTTC showed a switch fluorescence ratio of 1.
CTATCCGACG showed a switch fluorescence ratio of 2.17.
Sequence CTATGAGC has a switch fluorescence ratio of 0.95.
With CTATGCGTCA the switch fluorescence ratio was 1.
With CTATGGATGA the switch fluorescence ratio was 1.01.
CTATGGGGTA showed a switch fluorescence ratio of 0.987.
Sequence CTATGGTCTC has a switch fluorescence ratio of 0.954.
CTATGGTTGC was tested, and the switch fluorescence ratio was 0.93.
CTATGTAGAC showed a switch fluorescence ratio of 1.15.
CTATGTGGTA showed a switch fluorescence ratio of 1.
Sequence CTATTACCAG has a switch fluorescence ratio of 1.02.
CTATTACTAC gave a switch fluorescence ratio of 1.02.
For CTATTAGTAG, the switch fluorescence ratio was 1.02.
Sequence CTATTATAAA has a switch fluorescence ratio of 1.02.
For CTATTCTGTA, the switch fluorescence ratio was 0.97.
CTATTGAGAA was tested, and the switch fluorescence ratio was 1.02.
With CTATTTGATG the switch fluorescence ratio was 0.998.
Work on CTCAAAGGGA yielded a switch fluorescence ratio of 1.
Sequence CTCAACCGGT has a switch fluorescence ratio of 0.989.
Work on CTCAACCTCC yielded a switch fluorescence ratio of 2.11.
Work on CTCAAGGAGT yielded a switch fluorescence ratio of 1.13.
With CTCAAGGGTG the switch fluorescence ratio was 1.36.
Sequence CTCAATGGGG has a switch fluorescence ratio of 1.03.
In the case of CTCAATGTGG, the switch fluorescence ratio is reported as 0.979.
CTCAATTGAA showed a switch fluorescence ratio of 0.987.
CTCACGCCCT was tested, and the switch fluorescence ratio was 1.31.
CTCACGCGCT was tested, and the switch fluorescence ratio was 1.2.
With CTCACGCGTG the switch fluorescence ratio was 0.99.
For CTCACGCTTA, the switch fluorescence ratio was 2.55.
For CTCACGGATC, the switch fluorescence ratio was 1.34.
Sequence CTCAGAATCT has a switch fluorescence ratio of 1.02.
For CTCAGACATA, the switch fluorescence ratio was 1.07.
In the case of CTCAGACCAC, the switch fluorescence ratio is reported as 1.07.
For CTCAGCGGTC, the switch fluorescence ratio was 1.25.
CTCAGGTAAC was tested, and the switch fluorescence ratio was 1.14.
CTCAGGTGAA was tested, and the switch fluorescence ratio was 2.06.
CTCAGTCGTG showed a switch fluorescence ratio of 1.01.
In the case of CTCAGTGAGC, the switch fluorescence ratio is reported as 1.03.
Work on CTCAGTTATT yielded a switch fluorescence ratio of 1.02.
CTCATCTGTT gave a switch fluorescence ratio of 1.06.
Sequence CTCATCTTGT has a switch fluorescence ratio of 1.03.
For CTCATGCACC, the switch fluorescence ratio was 1.49.
Sequence CTCATTATAC has a switch fluorescence ratio of 1.97.
With CTCCAATTTT the switch fluorescence ratio was 1.07.
With CTCCAGTCTC the switch fluorescence ratio was 1.31.
For CTCCATCGCC, the switch fluorescence ratio was 1.11.
Work on CTCCATTTCA yielded a switch fluorescence ratio of 1.03.
Work on CTCCCAAGGA yielded a switch fluorescence ratio of 2.62.
Sequence CTCCCGGGTT has a switch fluorescence ratio of 1.24.
For CTCCCGTGCT, the switch fluorescence ratio was 1.24.
For CTCCGACAAA, the switch fluorescence ratio was 4.17.
CTCCGGTCGA gave a switch fluorescence ratio of 1.88.
With CTCCGGTTAT the switch fluorescence ratio was 4.29.
For CTCCTAATCG, the switch fluorescence ratio was 1.13.
CTCCTAGGAA showed a switch fluorescence ratio of 1.12.
CTCCTAGGC showed a switch fluorescence ratio of 1.28.
With CTCCTGATCG the switch fluorescence ratio was 1.04.
Sequence CTCCTGGGCG has a switch fluorescence ratio of 1.04.
Work on CTCGACCCCC yielded a switch fluorescence ratio of 1.5.
CTCGACCCCG was tested, and the switch fluorescence ratio was 1.02.
Work on CTCGACGACC yielded a switch fluorescence ratio of 1.47.
CTCGCAGCAG was tested, and the switch fluorescence ratio was 1.8.
CTCGCCAGAA was tested, and the switch fluorescence ratio was 0.993.
Work on CTCGCCGCAT yielded a switch fluorescence ratio of 2.25.
In the case of CTCGCGTCTT, the switch fluorescence ratio is reported as 1.03.
Work on CTCGGAAATA yielded a switch fluorescence ratio of 1.34.
With CTCGGAATTA the switch fluorescence ratio was 1.11.
Work on CTCGGCCGCC yielded a switch fluorescence ratio of 1.02.
CTCGGCGCGG was tested, and the switch fluorescence ratio was 0.977.
For CTCGGGAAAC, the switch fluorescence ratio was 1.13.
In the case of CTCGGGAATA, the switch fluorescence ratio is reported as 2.72.
Work on CTCGGTAAGA yielded a switch fluorescence ratio of 1.05.
Sequence CTCGGTAGGA has a switch fluorescence ratio of 0.945.
CTCGGTAGTA showed a switch fluorescence ratio of 1.01.
In the case of CTCGGTCAAA, the switch fluorescence ratio is reported as 1.19.
CTCGGTCATG showed a switch fluorescence ratio of 1.05.
Sequence CTCGGTCGAA has a switch fluorescence ratio of 0.995.
